According to publication PMC6919601, “Identification of Plasmodium dipeptidyl aminopeptidase allosteric inhibitors by high throughput screening” (PLoS ONE, 2019):
Hit rate of the full screen: of about 110,000 compounds, about 230 (0.21%) showed an effect of 50% or more. This is one part of the list.

Molecular target: DPAP1 (Plasmodium falciparum, UniProt Q8IIJ9)
Experiment: primary screen, percent inhibition; read by cleavage of a fluorogenic dipeptide substrate; higher = more effect of the substance
Parameters: species or system P. falciparum D10 trophozoite lysates; single well
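Note: 30 min substrate incubation versus DMSO and 10 µM JCP410 controls.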

DPAP1, sequence (Q8IIJ9 whole entry, looked up): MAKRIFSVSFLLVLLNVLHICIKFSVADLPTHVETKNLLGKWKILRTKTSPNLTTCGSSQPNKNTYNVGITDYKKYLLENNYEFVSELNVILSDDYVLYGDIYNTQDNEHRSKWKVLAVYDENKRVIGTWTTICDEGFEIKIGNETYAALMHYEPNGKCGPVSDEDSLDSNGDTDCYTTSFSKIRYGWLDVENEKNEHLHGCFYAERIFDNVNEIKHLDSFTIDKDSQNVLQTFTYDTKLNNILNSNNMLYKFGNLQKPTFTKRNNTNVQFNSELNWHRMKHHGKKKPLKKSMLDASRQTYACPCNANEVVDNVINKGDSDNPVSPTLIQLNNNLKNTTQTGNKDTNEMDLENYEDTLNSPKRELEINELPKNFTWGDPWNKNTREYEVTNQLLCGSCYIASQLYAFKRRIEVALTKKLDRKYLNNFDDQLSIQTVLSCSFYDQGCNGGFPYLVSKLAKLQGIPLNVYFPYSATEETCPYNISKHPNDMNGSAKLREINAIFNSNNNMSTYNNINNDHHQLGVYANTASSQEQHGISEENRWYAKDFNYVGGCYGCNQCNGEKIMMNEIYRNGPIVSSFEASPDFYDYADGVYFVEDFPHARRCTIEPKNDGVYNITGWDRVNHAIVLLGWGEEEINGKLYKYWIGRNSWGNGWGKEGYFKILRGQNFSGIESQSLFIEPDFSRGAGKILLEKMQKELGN

Row | SMILES | % Inhibition @ 10 uM
1 | CCSc1nnnn1-c1cccc(C(=O)O)c1 | -5.51%
2 | CCO/C(O)=C1/C(C)=Nc2nc(SCc3ccccc3C)nn2C1c1ccc(OC)c(OC)c1 (stereo not shown) | 3.61%
3 | Cc1ccc(Cn2c(=O)n(CCc3ccccc3)c(=O)c3cccnc32)cc1 | -1.66%
4 | COc1ccc(CC(C)NC2CCCCC2C)cc1OC (stereo not shown) | -3.8%
5 | CC1(C)C=C(/C=C/c2ccccc2)NC(=O)N1 | 1.76%
6 | COC(=O)C1=C(C)NC(=O)CC1c1ccccc1OC (stereo not shown) | 0.219%
7 | O=C1CC(N2CCCCCC2)C(=O)N1c1cccc(Cl)c1 (stereo not shown) | -3.91%
8 | CCc1ccccc1/N=C(\N)Nc1nc(C)cc(C)n1 | 2.36%
9 | Cc1cc(=O)n(C(C)C(=O)NCc2ccccc2)c2c1c(C)nn2-c1ccccc1 (stereo not shown) | 1.63%
10 | CN(C)C(c1ccc(Cl)cc1)c1nnnn1C(/C=C\c1ccc(Cl)cc1Cl)C(C)(C)C (stereo not shown) | -11%
11 | COc1ccccc1/C=C(\C#N)c1nc(-c2ccc(Br)cc2)cs1 | -0.591%
12 | CC(C)OCc1cc(CN2CCN(C)CC2)c(O)c2ncccc12 | -0.551%
13 | COc1cccc(C2=NOC(C(=O)NCC(C)C)C2)c1 (stereo not shown) | 1.42%
14 | COc1ccc(N2CCN(Cc3cccc(C)c3)CC2)cc1 | 2.47%
15 | COCCCNC(=O)C1CCN(S(=O)(=O)N2CCC3(CC2)OCCO3)CC1 | 5.35%
16 | Cc1ccc2[nH]c(NCCCO)nc2c1 | 0.162%
17 | CC(C)(C)NC(=O)Cn1c(SCc2cc3c(cc2Br)OCO3)nc2ccccc21 | -0.0108%
18 | CCCCN(Cc1ccco1)S(=O)(=O)c1c[nH]c(C(=O)OC)c1 | 1.78%
19 | O=C1c2cccc3cccc(c23)C(=O)N1c1nccs1 | 0.0265%
20 | COC(=O)c1cc(-c2ccccc2)c2c(=O)n(C)c(=O)n(C)c2n1 | -0.551%
21 | CCOc1ccc(C(=O)Nc2c(C)nc3ncnn3c2O)cc1OCC | 2%
22 | CCC(C(=O)Nc1cc(C)cc(C)n1)c1ccccc1 (stereo not shown) | -2.99%
23 | CCOc1ccc(C2C(C(=O)Nc3cccnc3)=C(C)Nc3nc(CCCO)nn32)cc1 (stereo not shown) | -10.2%
24 | COc1ccc(CNC(=O)Cc2c(C)c3c(O)cc(C)cc3oc2=O)cc1OC | 0.895%
25 | CCCOc1c(Br)cc(C=C2C(=O)NC(=O)NC2=O)cc1OCC | 25.7%
26 | Fc1ccc(N2CCN(Cc3ccc(Br)s3)CC2)cc1 | -1.92%
27 | CC(C)(C)OC(=O)N1CCC(c2c(C(=O)NCCc3ccsc3)cnn2-c2cccc(F)c2)CC1 | 1.75%
28 | CN(Cc1ccccc1)Cc1ccc(Br)o1 | 1.08%
